# Test results reported in the supplement of paper PMC8728848.
# The list shows a part of the results.
# B1: Banana lectin (Musa acuminata) (protein)
# chain: MNGAIKVGAWGGNGGSAFDMGPAYRIISVKIFSGDVVDGVDVTFTYYGKTETRHYGGSGGTPHEIVLQEGEYLVGMAGEVANYTGAVVLGKLGFSTNKKAYGPFGNTGGTPFSLPIAAGKISGFFGRGGKFLDAIGVYLEPLEHHHHHH
# Assays:
# Test in all cases: glycan array binding signal (z-score within array); higher = stronger binding
# Conditions in all cases: glycan notation: IUPAC condensed, linker removed; mutation: H84T
# [1] = target: Neu5Ac(a2-6)Gal(b1-4)GlcNAc(b1-3)Gal(b1-4)GlcNAc(b1-3)Gal(b1-4)GlcNAc
# Summary of the method: (§1)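 Glycan array data came from 3228 arrays in the Consortium for Functional Glycomics database, and only arrays with an available protein sequence were kept. Glycan names were put into IUPAC-condensed notation, and columns mapping to the same glycan were averaged. The binding signal is a within-array Z-score, averaged across arrays of one protein sequence run at different concentrations or buffers and across linkers. A negative Z-score can be read as non-binding.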
# [2] = target: Neu5Ac(a2-6)Gal(b1-4)GlcNAc(b1-3)Gal(b1-4)GlcNAc(b1-3)Gal(b1-4)GlcNAc(b1-2)Man(a1-3)[Neu5Ac(a2-6)Gal(b1-4)GlcNAc(b1-3)Gal(b1-4)GlcNAc(b1-3)Gal(b1-4)GlcNAc(b1-2)Man(a1-6)]GalNAc
# Summary of the method: as §1
# [3] = target: Neu5Ac(a2-6)Gal(b1-4)GlcNAc(b1-3)Gal(b1-4)GlcNAc(b1-3)GalNAc
# Summary of the method: as §1
# [4] = target: Neu5Ac(a2-6)Gal(b1-4)GlcNAc(b1-3)Gal(b1-4)GlcNAc(b1-3)[Neu5Ac(a2-6)Gal(b1-4)GlcNAc(b1-3)Gal(b1-4)GlcNAc(b1-6)]GalNAc
# Summary of the method: as §1
# [5] = target: Neu5Ac(a2-6)Gal(b1-4)GlcNAc(b1-3)Gal(b1-4)GlcNAc(b1-6)[Gal(b1-3)]GalNAc
# Summary of the method: as §1
# [6] = target: Neu5Ac(a2-6)Gal(b1-4)GlcNAc(b1-3)Gal(b1-4)[Fuc(a1-3)]GlcNAc(b1-3)Gal(b1-4)[Fuc(a1-3)]GlcNAc
# Summary of the method: as §1
# [7] = target: Neu5Ac(a2-6)Gal(b1-4)GlcNAc(b1-3)GalNAc
# Summary of the method: as §1
# [8] = target: Neu5Ac(a2-6)Gal(b1-4)GlcNAc(b1-3)[Neu5Ac(a2-6)Gal(b1-4)GlcNAc(b1-6)]GalNAc
# Summary of the method: as §1
# [9] = target: Neu5Ac(a2-6)Gal(b1-4)GlcNAc(b1-6)GalNAc
# Summary of the method: as §1
# [10] = target: Neu5Ac(a2-6)Gal(b1-4)GlcNAc(b1-6)[Gal(b1-3)GlcNAc(b1-3)]Gal(b1-4)Glc
# Summary of the method: as §1
# [11] = target: Neu5Ac(a2-6)Gal(b1-4)GlcNAc(b1-6)[Gal(b1-3)]GalNAc
# Summary of the method: as §1
# [12] = target: Neu5Ac(a2-6)Gal(b1-4)GlcNAc6S
# Summary of the method: as §1
# Neu5Ac(a2-6)GalNAc = target: Neu5Ac(a2-6)GalNAc
# Summary of the method: as §1
# [13] = target: Neu5Ac(a2-6)GalNAc(b1-4)GlcNAc
# Summary of the method: as §1
# [14] = target: Neu5Ac(a2-6)GalNAc(b1-4)GlcNAc6S
# Summary of the method: as §1
# [15] = target: Neu5Ac(a2-6)GlcNAc(b1-4)GlcNAc
# Summary of the method: as §1
# [16] = target: Neu5Ac(a2-6)GlcNAc(b1-4)GlcNAc(b1-4)GlcNAc
# Summary of the method: as §1
# Neu5Ac(a2-8)Neu5Ac = target: Neu5Ac(a2-8)Neu5Ac
# Summary of the method: as §1
# [17] = target: Neu5Ac(a2-8)Neu5Ac(a2-3)Gal(b1-3)GalNAc(b1-4)[Neu5Ac(a2-3)]Gal(b1-4)Glc
# Summary of the method: as §1
# [18] = target: Neu5Ac(a2-8)Neu5Ac(a2-3)Gal(b1-3)GalNAc(b1-4)[Neu5Ac(a2-8)Neu5Ac(a2-3)]Gal(b1-4)Glc
# Summary of the method: as §1
# [19] = target: Neu5Ac(a2-8)Neu5Ac(a2-3)Gal(b1-4)Glc
# Summary of the method: as §1
# [20] = target: Neu5Ac(a2-8)Neu5Ac(a2-3)Gal(b1-4)GlcNAc
# Summary of the method: as §1
# [21] = target: Neu5Ac(a2-8)Neu5Ac(a2-3)[Gal(b1-3)GalNAc(b1-4)]Gal(b1-4)Glc
# Summary of the method: as §1
# [22] = target: Neu5Ac(a2-8)Neu5Ac(a2-3)[GalNAc(b1-4)]Gal(b1-4)Glc
# Summary of the method: as §1
# [23] = target: Neu5Ac(a2-8)Neu5Ac(a2-8)Neu5Ac
# Summary of the method: as §1
# [24] = target: Neu5Ac(a2-8)Neu5Ac(a2-8)Neu5Ac(a2-3)Gal(b1-4)Glc
# Summary of the method: as §1
# [25] = target: Neu5Ac(a2-8)Neu5Ac(a2-8)Neu5Ac(a2-3)[Gal(b1-3)GalNAc(b1-4)]Gal(b1-4)Glc
# Summary of the method: as §1
# [26] = target: Neu5Ac(a2-8)Neu5Ac(a2-8)Neu5Ac(a2-3)[GalNAc(b1-4)]Gal(b1-4)Glc
# Summary of the method: as §1
# [27] = target: Neu5Ac(a2-8)Neu5Ac(a2-8)Neu5Ac(a2-8)Neu5Ac(a2-3)[GalNAc(b1-4)]Gal(b1-4)Glc
# Summary of the method: as §1
# [28] = target: Neu5Ac(a2-8)Neu5Gc(a2-3)Gal(b1-4)GlcNAc
# Summary of the method: as §1
# [29] = target: Neu5Ac(b2-6)Gal(b1-4)GlcNAc
# Summary of the method: as §1
# Neu5Ac(b2-6)GalNAc = target: Neu5Ac(b2-6)GalNAc
# Summary of the method: as §1
# [30] = target: Neu5Ac9Ac(a2-3)Gal(b1-3)GlcNAc
# Summary of the method: as §1
# [31] = target: Neu5Ac9Ac(a2-3)Gal(b1-4)GlcNAc
# Summary of the method: as §1
# [32] = target: Neu5Ac9Ac(a2-6)Gal(b1-4)GlcNAc
# Summary of the method: as §1
# [33] = target: Neu5Gc(a2-3)Gal(b1-3)GlcNAc
# Summary of the method: as §1
# [34] = target: Neu5Gc(a2-3)Gal(b1-3)[Fuc(a1-4)]GlcNAc
# Summary of the method: as §1
# Neu5Gc(a2-3)Gal(b1-4)Glc = target: Neu5Gc(a2-3)Gal(b1-4)Glc
# Summary of the method: as §1
# [35] = target: Neu5Gc(a2-3)Gal(b1-4)GlcNAc
# Summary of the method: as §1
# [36] = target: Neu5Gc(a2-3)Gal(b1-4)GlcNAc(b1-3)Gal(b1-4)GlcNAc(b1-2)Man(a1-3)[Neu5Gc(a2-3)Gal(b1-4)GlcNAc(b1-3)Gal(b1-4)GlcNAc(b1-2)Man(a1-6)]Man(b1-4)GlcNAc(b1-4)GlcNAc
# Summary of the method: as §1
# [37] = target: Neu5Gc(a2-3)Gal(b1-4)[Fuc(a1-3)]GlcNAc
# Summary of the method: as §1
# [38] = target: Neu5Gc(a2-6)Gal(b1-4)GlcNAc
# Summary of the method: as §1
# Neu5Gc(a2-6)GalNAc = target: Neu5Gc(a2-6)GalNAc
# Summary of the method: as §1
# [39] = target: Neu5Gc(a2-8)Neu5Ac(a2-3)Gal(b1-4)GlcNAc
# Summary of the method: as §1
# [40] = target: Neu5Gc(a2-8)Neu5Gc(a2-3)Gal(b1-4)GlcNAc
# Summary of the method: as §1
binder,measurement,setting,value
B1,glycan array binding signal (z-score),[1],-0.161
same,glycan array binding signal (z-score),[2],-0.177
same,glycan array binding signal (z-score),[3],-0.214
same,glycan array binding signal (z-score),[4],-0.161
same,glycan array binding signal (z-score),[5],-0.221
same,glycan array binding signal (z-score),[6],-0.085
same,glycan array binding signal (z-score),[7],-0.177
same,glycan array binding signal (z-score),[8],-0.173
same,glycan array binding signal (z-score),[9],-0.158
same,glycan array binding signal (z-score),[10],-0.172
same,glycan array binding signal (z-score),[11],-0.182
same,glycan array binding signal (z-score),[12],-0.145
same,glycan array binding signal (z-score),Neu5Ac(a2-6)GalNAc,-0.16
same,glycan array binding signal (z-score),[13],-0.198
same,glycan array binding signal (z-score),[14],-0.17
same,glycan array binding signal (z-score),[15],-0.155
same,glycan array binding signal (z-score),[16],-0.201
same,glycan array binding signal (z-score),Neu5Ac(a2-8)Neu5Ac,-0.177
same,glycan array binding signal (z-score),[17],-0.187
same,glycan array binding signal (z-score),[18],-0.177
same,glycan array binding signal (z-score),[19],-0.177
same,glycan array binding signal (z-score),[20],-0.182
same,glycan array binding signal (z-score),[21],-0.178
same,glycan array binding signal (z-score),[22],-0.134
same,glycan array binding signal (z-score),[23],-0.158
same,glycan array binding signal (z-score),[24],-0.179
same,glycan array binding signal (z-score),[25],-0.159
same,glycan array binding signal (z-score),[26],-0.157
same,glycan array binding signal (z-score),[27],-0.195
same,glycan array binding signal (z-score),[28],-0.222
same,glycan array binding signal (z-score),[29],-0.184
same,glycan array binding signal (z-score),Neu5Ac(b2-6)GalNAc,-0.154
same,glycan array binding signal (z-score),[30],-0.175
same,glycan array binding signal (z-score),[31],-0.181
same,glycan array binding signal (z-score),[32],-0.176
same,glycan array binding signal (z-score),[33],-0.118
same,glycan array binding signal (z-score),[34],-0.194
same,glycan array binding signal (z-score),Neu5Gc(a2-3)Gal(b1-4)Glc,-0.209
same,glycan array binding signal (z-score),[35],-0.189
same,glycan array binding signal (z-score),[36],-0.186
same,glycan array binding signal (z-score),[37],-0.18
same,glycan array binding signal (z-score),[38],-0.167
same,glycan array binding signal (z-score),Neu5Gc(a2-6)GalNAc,-0.157
same,glycan array binding signal (z-score),[39],-0.19
same,glycan array binding signal (z-score),[40],-0.162
